# Over roughly 33,000 sequences, “E-score (-0.5 to 0.5)” has its median near -0.054; the highest 2% begin near 0.39. The list shows a part of the results.
# Target: Ylr278c (UniProt Q05854)
# Experiment: PBM E-score (8-mer binding enrichment) (E-score (-0.5 to 0.5)); higher = stronger / more preferred TF binding; most listed sequences are background and not binding sites
# Conditions: protein concentration: 200 nM; construct: GST-DNA-binding domain
# In short: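 Masliner-normalised scans of fluorescent anti-GST signal were the basis for scoring. That signal came from GST-tagged yeast transcription factors applied at about 100-200 nM to double-stranded universal all-10-mer Agilent arrays on fresh or once-stripped slides. Each ungapped eight-base word, pooled with its reverse complement, received an E-score from the Universal PBM Analysis Suite.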
row,Sequence,PBM E-score
1,AGGGACTC,-0.166
2,ATGCCTGC,0.00735
3,CTACGTAA,-0.068
4,ATGGAGGC,-0.15
5,CATACAGA,-0.0143
6,AAGTTCGA,-0.0118
7,AAGCTTGT,-0.0549
8,GCCGTCAA,-0.0801
9,CGAGCTTA,-0.0265
10,CCTGATCC,0.055
11,AGCGACAA,-0.185
12,AAGGTTTG,-0.0884
13,CTTCTGCC,-0.135
14,GTTTGGCA,-0.118
15,TATGGCAA,-0.0943
16,CCTATCTC,0.144
17,GACGGCTC,0.0564
18,CTGGAGCA,-0.185
19,AAATACCC,0.192
20,GCTCGGCC,0.152
21,GCAAAGCA,-0.178
22,CTATCGAC,-0.228
23,CTCCCGTC,0.213
24,ACAGTACT,-0.146
25,AGGGCTCA,-0.277

row,Sequence,PBM E-score
1,AATCGGGA,0.231
2,CTGTACGC,-0.138
3,GCCGAAAA,0.359
4,AGTCAACT,-0.312
5,CTAGTGCA,-0.0821
6,ACAAATTC,0.153
7,CAATCGGC,0.129
8,CACAATAA,-0.137
9,CCAAGCTC,-0.0553
10,CAGTATTC,-0.101
11,TGTGCCAA,-0.0672
12,GCCAAACA,0.0977
13,CCTGACAG,-0.0842
14,GCCGCACC,0.24
15,GCCTGTTA,-0.189
16,GGCAACCA,0.0912
17,AGATGAAG,-0.123
18,ACTCATGG,-0.191
19,AGGGGCTG,-0.177
20,ATTTCTTC,0.1
21,CCATTGCA,-0.289
22,CCGTAGCC,0.0108
23,ACTTACTG,-0.0338
24,CAATTGAC,0.0114
25,CTCGAACA,-0.209

row,Sequence,PBM E-score
1,ACCGACCG,0.184
2,AGTTCTAC,-0.331
3,CCACCGCC,0.00359
4,ATTTGGCA,-0.183
5,GAGACTCA,-0.113
6,CTGCTTAA,-0.116
7,CCAGTTAG,-0.247
8,CTGCCCAG,-0.158
9,CAGCTAAG,-0.453
10,CTGAAGTA,-0.0935
11,ACAACGTG,-0.0794
12,CGGCAACG,0.164
13,GGCTAGAC,-0.0944
14,CGGTAATC,0.326
15,CTATCCTA,-0.0472
16,ATGGTTAG,0.0697
17,CTCCACAC,-0.156
18,GCAAATCC,0.286
19,AGCATCCA,-0.17
20,CTGCAAAG,-0.3
21,GGGGAGCA,-0.0491
22,AACCGGAG,0.48
23,GCCGCCAC,0.0465
24,CCACTTAA,0.0138
25,ACAGTTGC,-0.0746

row,Sequence,PBM E-score
1,ATTTACCA,0.0876
2,CCGCTTCC,0.278
3,AGGTGCTC,-0.163
4,AAGAGATC,-0.146
5,CATCTACG,0.0857
6,AGCCCCAC,0.00659
7,AAACTCGC,0.0784
8,GGGCTGGA,-0.0332
9,CGTTCAAG,0.0399
10,ACAGTGGC,-0.205
11,GCAGAGGA,-0.104
12,CAGTAACG,-0.117
13,TACCTCGA,-0.212
14,TCCCATAA,-0.204
15,AACACAGT,-0.0468
16,GGATACCA,0.082
17,GATACCGA,0.0344
18,GAGAGTAC,-0.0459
19,AGGGAGTC,-0.297
20,AAGGTCGT,-0.279
21,AAAGCCTC,-0.0828
22,AGTGGAGC,-0.209
23,ATAAATCA,-0.166
24,CCGGTGAA,0.363
25,TATGCCAA,-0.142

row,Sequence,PBM E-score
1,CGGAGCTA,0.42
2,AGGTGGCA,-0.169
3,CTACGGAA,0.197
4,AACTTGAC,-0.104
5,CCCTGCAC,-0.0902
6,GCATTAGA,-0.00923
7,GCGCCGAC,0.269
8,GTAGCCCA,-0.232
9,GCAGGGGA,-0.143
10,AGCCTGGC,-0.226
11,CGGAACGC,0.348
12,CGGACCTC,0.37
13,GCTATAGA,-0.234
14,CCGGAGTC,0.451
15,AGTTTAAC,-0.158
16,GATGCGGC,0.0424
17,CGAGACTA,0.077
18,CGCTTGGC,-0.253
19,AGTAGACC,-0.18
20,CACCCCTA,-0.0875
21,CTGCCTGC,-0.157
22,CACCGCCG,0.273
23,CAATATGA,-0.0406
24,ATACCCTA,-0.301
25,AATCTCTA,-0.142

row,Sequence,PBM E-score
1,CGTTGCAA,-0.102
2,GCTAAGAC,-0.0188
3,CTGTATCC,0.047
4,CAAGCTCG,0.091
5,ATAAACGC,0.0693
6,CCGTTGGC,0.228
7,CTAGGGCC,-0.197
8,CCGATCAC,0.312
9,TAAACCGA,0.0399
10,AGGGCCAT,-0.178
11,GTTCGTCA,-0.15
12,AGCCCTGC,-0.278
13,CGTGGGGA,-0.0985
14,GCAGGTGA,-0.115
15,CTCATGTC,-0.1
16,AACGGCTT,0.0117
17,AGCCATGG,-0.353
18,TACGGCTA,-0.154
19,ATCGGTTC,0.13
20,AGCCTTCC,-0.134
21,CAGATGAG,-0.273
22,AGAGCTGG,-0.0321
23,GGGGCCAA,-0.0596
24,GACTGTAA,-0.14
25,GGAGCCCA,-0.0232

row,Sequence,PBM E-score
1,GCCTTTGA,-0.0973
2,GTAGTTAA,-0.198
3,ACTTAGGA,-0.402
4,AGTAGATG,-0.0703
5,CAGGCCAC,-0.182
6,AGCTCCGA,0.47
7,CGGGCCCG,0.398
8,CCGCTAAG,0.11
9,CAGACGCG,-0.215
10,ACCGGGAA,0.352
11,GGGAGTAA,0.0663
12,CTATTCAA,-0.198
13,AGGGGTAC,-0.107
14,GTGACACA,-0.0204
15,AGCTTGGC,-0.114
16,ACTCATTG,-0.12
17,AGCACGCG,0.018
18,GAGACGAA,-0.132
19,CTTCGTTC,-0.185
20,CGAGACCC,0.142
21,CGTGTTCC,0.3
22,GCGTCTCC,0.231
